According to PubChem BioAssay AID1030 (National Center for Advancing Translational Sciences (NCATS), 2008):
The whole screen tested about 220,000 compounds, of which about 16,000 (7.3%) were called active. The shares of active, inactive and inconclusive entries below differ from those in the screen. Calls follow the shape of the dose curve; as a rule, active = well fitted inhibition curve with a large enough effect (not every such curve was filed as active); inconclusive = small, poorly fitted or top-dose-only effect, or another doubt; inactive = no such curve, though single readings can be large or run the other way. No potency is given beside an inconclusive call; the fits are too rough.

target: Aldehyde dehydrogenase 1A1 (Homo sapiens) (UniProt P00352); test: qHTS Assay for Inhibitors of Aldehyde Dehydrogenase 1 (ALDH1A1); details: Purified ALDH1A1, NADH fluorescence, propionaldehyde substrate; series mostly up to 75.3 µM; activity, negative = inhibition: at the top concentration;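 as to activity, negative = inhibition: plate controls were no enzyme wells and a reference inhibitor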
UniProt P00352, sequence (P00352 whole entry, looked up): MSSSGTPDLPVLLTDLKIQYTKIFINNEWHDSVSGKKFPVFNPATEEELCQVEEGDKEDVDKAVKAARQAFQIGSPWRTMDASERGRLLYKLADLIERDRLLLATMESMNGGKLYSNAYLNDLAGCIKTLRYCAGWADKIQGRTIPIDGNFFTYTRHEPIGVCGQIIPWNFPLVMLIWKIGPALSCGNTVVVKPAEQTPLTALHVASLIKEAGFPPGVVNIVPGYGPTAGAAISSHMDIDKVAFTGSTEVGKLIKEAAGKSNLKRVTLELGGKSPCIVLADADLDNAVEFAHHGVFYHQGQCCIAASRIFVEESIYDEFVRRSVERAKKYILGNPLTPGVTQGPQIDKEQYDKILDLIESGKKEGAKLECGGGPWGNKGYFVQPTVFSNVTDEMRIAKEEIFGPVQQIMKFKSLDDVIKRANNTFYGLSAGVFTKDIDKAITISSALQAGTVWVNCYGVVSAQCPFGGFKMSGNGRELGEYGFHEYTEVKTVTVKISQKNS
Potency is read from the fitted curve at half-maximal effect; tags tell the direction and shape of the fitted curve.

| SMILES | Potency | activity, negative = inhibition |
| --- | --- | --- |
| Cc1cc(C)c2c(=O)n(CC(=O)NCCCN3CCN(c4ccccc4F)CC3)sc2n1 | active: 3.55 µM | – |
| C/C(CC(=O)Nc1cccc(Cl)c1Cl)=N\NC(=O)c1ccccc1C | active: 8.91 µM | – |
| CCOc1ccccc1OCCOCCOc1ccccc1[N+](=O)[O-] | inconclusive [inhibitor, partial curve] | – |
| O=[N+]([O-])c1ccc(C(=Nc2cccc3ccccc23)N2CCOCC2)cc1 | – | inactive: -3.27% |
| COc1ccc(OC)c(NC(=O)CS(=O)(=O)Cc2nc(-c3ccccc3C)oc2C)c1 | inconclusive [inhibitor, single point] | – |
| COc1ccc(CNC(=O)CN(Cc2ccc(C)cc2)S(=O)(=O)c2ccc(Cl)cc2)cc1 | inconclusive [inhibitor, partial curve] | – |
| CCC(C)NCCOc1ccc(C)cc1[N+](=O)[O-] (stereo not drawn) | inconclusive [inhibitor, single point] | – |
| O=C1NC(=NCc2ccccc2)S/C1=C\c1ccccc1 | – | inactive: 2.97% |
| CCOC(=O)c1ccc(NC(=O)Cn2cc3c(n2)CCC(C)C3)cc1 (stereo not drawn) | – | inactive: 10.5% |
| O=C(CN1CCC2(CC1)OCCO2)c1ccc2cc[nH]c2c1 | inconclusive [inhibitor, single point] | – |
| CCC(C)(C)NC(=O)CN(C(=O)CCC(=O)Nc1cc(C)ccn1)c1ccc2c(c1)OCCO2 | – | inactive: 2.32% |
| CCOC(=O)c1sc(=S)n(CC)c1N | – | inactive: 4.98% |
| O=C(c1cc2nc(-c3ccco3)cc(C(F)(F)F)n2n1)N1CCN(c2ccccc2)CC1 | inconclusive [inhibitor, single point] | – |
| Cc1ccc(C(=O)/C=C/c2ccccc2[N+](=O)[O-])cc1 | inconclusive [inhibitor, single point] | – |
| CCOC(=O)C1=C(C)OC(N)=C(C#N)C1c1cccc(C)c1 (stereo not drawn) | inconclusive [inhibitor, single point] | – |
| O/N=C/c1ccccc1OCc1ccc(Cl)cc1 | – | inactive: -0.43% |
| O=C(NC1CCCCC1)C(c1cccnc1)N(C(=O)c1csnn1)C1CCCC1 (stereo not drawn) | – | inactive: 7.75% |
| CCC1=C(OC(=O)N(CC)CC)N2C(=O)OC(=NCCOC)[C@]2(Cc2ccccc2)[C@H]2C1=CC[C@H]1C(=O)N(CC(=O)OC)C(=O)[C@H]12 | – | inactive: 9.11% |
| Cc1noc(NS(=O)(=O)c2ccc(NC(=O)CSc3nnc4c(n3)[nH]c3ccccc34)cc2)c1C | – | inactive: 9.29% |
| O=C(CCCN1C(=O)CCC1=O)Nc1ccccc1F | – | inactive: 0.216% |
| C=CCNC(=S)Nc1ccc2nsnc2c1 | – | inactive: -6.04% |
| N#Cc1cc2ccccc2nc1SCc1ccccn1 | – | inactive: -6.85% |
| COC(=O)c1sc2nc(CN3CCOCC3)nc(N3CCOCC3)c2c1C | inconclusive [inhibitor, partial curve] | – |
| O=C1OCCC1Sc1nnnn1-c1ccccc1 (stereo not drawn) | inconclusive [inhibitor, single point] | – |

| SMILES | Potency | activity, negative = inhibition |
| --- | --- | --- |
| S=C1NC2=C(CCC/C2=C\c2ccccc2)C(c2ccccc2)N1 (stereo not drawn) | active: 0.631 µM | – |
| COc1ccc(N2CC(C(=O)Nc3nnc(SCC(=O)c4ccccc4)s3)CC2=O)cc1 (stereo not drawn) | inconclusive [inhibitor, single point] | – |
| O=C(Nc1ccc(Cl)c(Cl)c1)N1CCSC1c1ccco1 (stereo not drawn) | active: 5.01 µM | – |
| CCc1nnc(NC(=O)NC(C)(C)C)s1 | inconclusive [inhibitor, single point] | – |
| O=C(NC1=NCCS1)c1ccc(Cl)c(S(=O)(=O)N2CCOCC2)c1 | inconclusive [inhibitor, single point] | – |
| CCOC(=O)c1ccc(N2C(=O)C=CC2=O)cc1 | active: 0.0631 µM | – |
| CCOc1ccc(-n2cc(-c3ccccc3)c3c(N4CCOCC4)ncnc32)cc1 | inconclusive [inhibitor, single point] | – |
| O=C(Nc1ccc(-c2nc3cc(Cl)ccc3c(=O)o2)cc1)c1ccco1 | inconclusive [inhibitor, partial curve] | – |
| COc1ccc(C2NCCn3cccc32)cc1 (stereo not drawn) | inconclusive [inhibitor, single point] | – |
| COc1ccc(NC(=O)N(Cc2cc3cc(OC)c(OC)cc3[nH]c2=O)CC2CCCO2)cc1 (stereo not drawn) | inconclusive [inhibitor, single point] | – |
| CCOCC(=O)NCc1ccc2c(c1)OCO2 | – | inactive: 3.33% |
| Cc1ccc(SCc2nc(-c3cccnc3)no2)cc1 | inconclusive [inhibitor, single point] | – |
| COc1ccc(S(=O)(=O)N2CCCCCC2)cc1NC(=O)Cc1ccccc1 | inconclusive [inhibitor, single point] | – |
| Nc1c(C(=O)NCc2ccccc2)c2nc3ccccc3nc2n1-c1ccc2c(c1)OCO2 | inconclusive [inhibitor, full curve] | – |
| C=C(C(=O)c1ccccc1)C(c1ccccc1)C(C)C(=O)c1ccccc1 (stereo not drawn) | inconclusive [inhibitor, single point] | – |
| Cc1ccc(S(=O)(=O)Nc2cccnc2Oc2ccc(Cl)cc2)cc1 | active: 0.02 µM | – |
| CCn1c(SCC(=O)c2ccccc2)nnc1-c1ccoc1C | inconclusive [inhibitor, single point] | – |
| COc1ccc(CCNc2ccc(N3C(=O)CC(C)C3=O)cc2[N+](=O)[O-])cc1OC (stereo not drawn) | inconclusive [inhibitor, single point] | – |
| Cc1cccc(NC(=S)N/N=C2\CC(C)(C)Oc3ccc(O)cc32)c1 | inconclusive [inhibitor, single point] | – |
| CCCCn1c(=O)c2c(c3ccccc31)OCC(=O)N2 | active: 20 µM | – |
| Cc1ccc(NC(=O)C2C(c3ccccc3)C2(Cl)Cl)c(C)c1 (stereo not drawn) | – | inactive: 5.04% |
| Cc1ccc(S(=O)(=O)NCc2ccc(C(=O)NCc3cccnc3)cc2)cc1 | inconclusive [inhibitor, single point] | – |
| COc1ccc(S(=O)(=O)Nc2ccc(NC(C)=O)cc2)cc1Cl | inconclusive [inhibitor, single point] | – |
| O=C(COC(=O)CNS(=O)(=O)c1ccc2ccccc2c1)Nc1ccccc1Sc1ccccc1 | active: 17.8 µM | – |
